# Laboratory results published in the supplement of paper PMC8728848.
# This is one part of the list.
# Legend:
# Test in all cases: glycan array binding signal (z-score within array); higher = stronger binding
# Settings in all cases: glycan notation: IUPAC condensed, linker removed
# [1] = molecular target: Gal(b1-4)GalNAc(b1-3)[Fuc(a1-2)]Gal(b1-4)GlcNAc
# Summary of the method: (§1)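 Glycan array data came from 3228 arrays in the Consortium for Functional Glycomics database, and only arrays with an available protein sequence were kept. Glycan names were put into IUPAC-condensed notation, and columns mapping to the same glycan were averaged. The binding signal is a within-array Z-score, averaged across arrays of one protein sequence run at different concentrations or buffers and across linkers. A negative Z-score can be read as non-binding.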
# Gal(b1-4)Glc = molecular target: Gal(b1-4)Glc
# Summary of the method: as §1
# Gal(b1-4)Glc6S = molecular target: Gal(b1-4)Glc6S
# Summary of the method: as §1
# Gal(b1-4)GlcNAc = molecular target: Gal(b1-4)GlcNAc
# Summary of the method: as §1
# [2] = molecular target: Gal(b1-4)GlcNAc(a1-6)Gal(b1-4)GlcNAc
# Summary of the method: as §1
# [3] = molecular target: Gal(b1-4)GlcNAc(b1-2)Man(a1-3)Man(b1-4)GlcNAc(b1-4)GlcNAc
# Summary of the method: as §1
# [4] = molecular target: Gal(b1-4)GlcNAc(b1-2)Man(a1-3)[Gal(b1-4)GlcNAc(b1-2)Man(a1-6)]Man(b1-4)GlcNAc(b1-4)GlcNAc
# Summary of the method: as §1
# [5] = molecular target: Gal(b1-4)GlcNAc(b1-2)Man(a1-3)[Gal(b1-4)GlcNAc(b1-2)Man(a1-6)]Man(b1-4)GlcNAc(b1-4)[Fuc(a1-6)]GlcNAc
# Summary of the method: as §1
# [6] = molecular target: Gal(b1-4)GlcNAc(b1-2)Man(a1-3)[Gal(b1-4)GlcNAc(b1-2)][GlcNAc(b1-4)]Man(b1-4)GlcNAc(b1-4)GlcNAc
# Summary of the method: as §1
# [7] = molecular target: Gal(b1-4)GlcNAc(b1-2)Man(a1-3)[GlcNAc(b1-2)Man(a1-6)]Man(b1-4)GlcNAc(b1-4)GlcNAc
# Summary of the method: as §1
# [8] = molecular target: Gal(b1-4)GlcNAc(b1-2)Man(a1-3)[Man(a1-6)]Man(b1-4)GlcNAc(b1-4)GlcNAc
# Summary of the method: as §1
# [9] = molecular target: Gal(b1-4)GlcNAc(b1-2)Man(a1-6)Man(b1-4)GlcNAc(b1-4)GlcNAc
# Summary of the method: as §1
# [10] = molecular target: Gal(b1-4)GlcNAc(b1-2)Man(a1-6)[GlcNAc(b1-2)Man(a1-3)]Man(b1-4)GlcNAc(b1-4)GlcNAc
# Summary of the method: as §1
# [11] = molecular target: Gal(b1-4)GlcNAc(b1-2)Man(a1-6)[Man(a1-3)]Man(b1-4)GlcNAc(b1-4)GlcNAc
# Summary of the method: as §1
# [12] = molecular target: Gal(b1-4)GlcNAc(b1-2)[Gal(b1-4)GlcNAc(b1-4)]Man(a1-3)[Gal(b1-4)GlcNAc(b1-2)Man(a1-6)]Man(b1-4)GlcNAc(b1-4)GlcNAc
# Summary of the method: as §1
# [13] = molecular target: Gal(b1-4)GlcNAc(b1-2)[Gal(b1-4)GlcNAc(b1-4)]Man(a1-3)[Gal(b1-4)GlcNAc(b1-2)[Gal(b1-4)GlcNAc(b1-6)]Man(a1-6)]Man(b1-4)GlcNAc(b1-4)GlcNAc
# Summary of the method: as §1
# [14] = molecular target: Gal(b1-4)GlcNAc(b1-2)[Gal(b1-4)GlcNAc(b1-4)]Man(a1-3)[GlcNAc(b1-4)][Gal(b1-4)GlcNAc(b1-2)Man(a1-6)]Man(b1-4)GlcNAc(b1-4)GlcNAc
# Summary of the method: as §1
# [15] = molecular target: Gal(b1-4)GlcNAc(b1-2)[Gal(b1-4)GlcNAc(b1-6)]Man(a1-6)[GlcNAc(b1-4)][Gal(b1-4)GlcNAc(b1-2)Man(a1-3)]Man(b1-4)GlcNAc(b1-4)GlcNAc
# Summary of the method: as §1
# [16] = molecular target: Gal(b1-4)GlcNAc(b1-3)Gal(b1-3)GlcNAc
# Summary of the method: as §1
# [17] = molecular target: Gal(b1-4)GlcNAc(b1-3)Gal(b1-4)Glc
# Summary of the method: as §1
# [18] = molecular target: Gal(b1-4)GlcNAc(b1-3)Gal(b1-4)GlcNAc
# Summary of the method: as §1
# [19] = molecular target: Gal(b1-4)GlcNAc(b1-3)Gal(b1-4)GlcNAc(b1-3)Gal(b1-4)GlcNAc
# Summary of the method: as §1
# [20] = molecular target: Gal(b1-4)GlcNAc(b1-3)Gal(b1-4)[Fuc(a1-3)GlcNAc(b1-6)]Gal(b1-4)Glc
# Summary of the method: as §1
# [21] = molecular target: Gal(b1-4)GlcNAc(b1-3)Gal(b1-4)[Fuc(a1-3)]GlcNAc(b1-3)Gal(b1-4)[Fuc(a1-3)]GlcNAc
# Summary of the method: as §1
# [22] = molecular target: Gal(b1-4)GlcNAc(b1-3)GalNAc
# Summary of the method: as §1
# [23] = molecular target: Gal(b1-4)GlcNAc(b1-3)[Gal(b1-4)GlcNAc(b1-6)]Gal(b1-4)GlcNAc
# Summary of the method: as §1
# [24] = molecular target: Gal(b1-4)GlcNAc(b1-3)[Gal(b1-4)GlcNAc(b1-6)]GalNAc
# Summary of the method: as §1
# [25] = molecular target: Gal(b1-4)GlcNAc(b1-3)[GlcNAc(b1-6)]Gal(b1-4)GlcNAc
# Summary of the method: as §1
# [26] = molecular target: Gal(b1-4)GlcNAc(b1-6)Gal(b1-4)GlcNAc
# Summary of the method: as §1
# [27] = molecular target: Gal(b1-4)GlcNAc(b1-6)GalNAc
# Summary of the method: as §1
# [28] = molecular target: Gal(b1-4)GlcNAc(b1-6)[Gal(b1-3)]GalNAc
# Summary of the method: as §1
# Gal(b1-6)Gal = molecular target: Gal(b1-6)Gal
# Summary of the method: as §1
# Gal3S(b1-3)GalNAc = molecular target: Gal3S(b1-3)GalNAc
# Summary of the method: as §1
# Gal3S(b1-3)GlcNAc = molecular target: Gal3S(b1-3)GlcNAc
# Summary of the method: as §1
# [29] = molecular target: Gal3S(b1-3)[Fuc(a1-4)]GlcNAc
# Summary of the method: as §1
# Gal3S(b1-4)Glc = molecular target: Gal3S(b1-4)Glc
# Summary of the method: as §1
# Gal3S(b1-4)Glc6S = molecular target: Gal3S(b1-4)Glc6S
# Summary of the method: as §1
# Gal3S(b1-4)GlcNAc = molecular target: Gal3S(b1-4)GlcNAc
# Summary of the method: as §1
# Gal3S(b1-4)GlcNAc6S = molecular target: Gal3S(b1-4)GlcNAc6S
# Summary of the method: as §1
# [30] = molecular target: Gal3S(b1-4)[Fuc(a1-3)]Glc
# Summary of the method: as §1
# [31] = molecular target: Gal3S(b1-4)[Fuc(a1-3)]Glc6S
# Summary of the method: as §1
# Gal3S4S(b1-4)GlcNAc = molecular target: Gal3S4S(b1-4)GlcNAc
# Summary of the method: as §1
# Gal3S6S(b1-4)GlcNAc = molecular target: Gal3S6S(b1-4)GlcNAc
# Summary of the method: as §1
# Gal3S6S(b1-4)GlcNAc6S = molecular target: Gal3S6S(b1-4)GlcNAc6S
# Summary of the method: as §1
# Gal4S(b1-4)GlcNAc = molecular target: Gal4S(b1-4)GlcNAc
# Summary of the method: as §1
binder,measurement,setting,value
Tectonin 2 (Laccaria bicolor) (protein) MPWKGISGSLSRISAGSVTNVWGVNAANNIYRYTGDDAKPWVQIPGALTDIGAAADGTVWGVNAAGNIYRYVWDSNHWTQIKGALKRISAGSRTNVWGVNAGGAIYRYTGDDANPWVQIPGVLSDIGAGADGTVWGVNAAGEIYRYTGDQGDPNHWVKIPGALSAISAGIKTNVWGVNSANNIYTSTGDDKNPWLGIGGSLVDIGAGTDGVVWGVNAGGGIYRWIRD,glycan array binding signal (z-score),[1],-0.107
same,glycan array binding signal (z-score),Gal(b1-4)Glc,-0.333
same,glycan array binding signal (z-score),Gal(b1-4)Glc6S,-0.111
same,glycan array binding signal (z-score),Gal(b1-4)GlcNAc,-0.381
same,glycan array binding signal (z-score),[2],-0.389
same,glycan array binding signal (z-score),[3],-0.226
same,glycan array binding signal (z-score),[4],-0.261
same,glycan array binding signal (z-score),[5],0.314
same,glycan array binding signal (z-score),[6],-0.425
same,glycan array binding signal (z-score),[7],-0.362
same,glycan array binding signal (z-score),[8],-0.092
same,glycan array binding signal (z-score),[9],0.217
same,glycan array binding signal (z-score),[10],-0.451
same,glycan array binding signal (z-score),[11],-0.487
same,glycan array binding signal (z-score),[12],-0.307
same,glycan array binding signal (z-score),[13],-0.038
same,glycan array binding signal (z-score),[14],0.732
same,glycan array binding signal (z-score),[15],-0.38
same,glycan array binding signal (z-score),[16],-0.021
same,glycan array binding signal (z-score),[17],-0.385
same,glycan array binding signal (z-score),[18],-0.248
same,glycan array binding signal (z-score),[19],-0.352
same,glycan array binding signal (z-score),[20],-0.568
same,glycan array binding signal (z-score),[21],-0.118
same,glycan array binding signal (z-score),[22],-0.335
same,glycan array binding signal (z-score),[23],-0.382
same,glycan array binding signal (z-score),[24],-0.151
same,glycan array binding signal (z-score),[25],-0.462
same,glycan array binding signal (z-score),[26],-0.302
same,glycan array binding signal (z-score),[27],-0.307
same,glycan array binding signal (z-score),[28],-0.206
same,glycan array binding signal (z-score),Gal(b1-6)Gal,-0.425
same,glycan array binding signal (z-score),Gal3S(b1-3)GalNAc,-0.126
same,glycan array binding signal (z-score),Gal3S(b1-3)GlcNAc,-0.076
same,glycan array binding signal (z-score),[29],0.106
same,glycan array binding signal (z-score),Gal3S(b1-4)Glc,0.03
same,glycan array binding signal (z-score),Gal3S(b1-4)Glc6S,0.155
same,glycan array binding signal (z-score),Gal3S(b1-4)GlcNAc,0.181
same,glycan array binding signal (z-score),Gal3S(b1-4)GlcNAc6S,0.565
same,glycan array binding signal (z-score),[30],-0.079
same,glycan array binding signal (z-score),[31],1.05
same,glycan array binding signal (z-score),Gal3S4S(b1-4)GlcNAc,0.398
same,glycan array binding signal (z-score),Gal3S6S(b1-4)GlcNAc,0.741
same,glycan array binding signal (z-score),Gal3S6S(b1-4)GlcNAc6S,1.73
same,glycan array binding signal (z-score),Gal4S(b1-4)GlcNAc,0.092
